# Data reported in the supplement of paper PMC8728848.
# The list shows a part of the results.
# Assays:
# Experiment in all cases: glycan array binding signal (z-score within array); higher = stronger binding
# Settings in all cases: glycan notation: IUPAC condensed, linker removed
# [1] = molecular target: Neu5Gc(a2-3)Gal(b1-4)[Fuc(a1-3)]GlcNAc
# How it was run: (§1)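 Columns mapping to the same glycan were averaged after glycan names were converted to IUPAC-condensed notation. The data come from 3228 arrays in the Consortium for Functional Glycomics database, limited to those with an available protein sequence. Binding is reported as a within-array Z-score averaged across arrays of one protein sequence and across linkers.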
# [2] = molecular target: Neu5Gc(a2-6)Gal(b1-4)GlcNAc
# How it was run: as §1
# Neu5Gc(a2-6)GalNAc = molecular target: Neu5Gc(a2-6)GalNAc
# How it was run: as §1
# [3] = molecular target: Neu5Gc(b2-6)Gal(b1-4)GlcNAc
# How it was run: as §1
binder,measurement,setting,value
"E-Selectin (Homo sapiens), P16581 (protein) MIASQFLSALTLVLLIKESGAWSYNTSTEAMTYDEASAYCQQRYTHLVAIQNKEEIEYLNSILSYSPSYYWIGIRKVNNVWVWVGTQKPLTEEAKNWAPGEPNNRQKDEDCVEIYIKREKDVGMWNDERCSKKKLALCYTAACTNTSCSGHGECVETINNYTCKCDPGFSGLKCEQIVNCTALESPEHGSLVCSHPLGNFSYNSSCSISCDRGYLPSSMETMQCMSSGEWSAPIPACNVVECDAVTNPANGFVECFQNPGSFPWNTTCTFDCEEGFELMGAQSLQCTSSGNWDNEKPTCKAVTCRAVRQPQNGSVRCSHSPAGEFTFKSSCNFTCEEGFMLQGPAQVECTTQGQWTQQIPVCEAFQCTALSNPERGYMNCLPSASGSFRYGSSCEFSCEQGFVLKGSKRLQCGPTGEWDNEKPTCEAVRCDAVHQPPKGLVRCAHSPIGEFTYKSSCAFSCEEGFELHGSTQLECTSQGQWTEEVPSCQVVKCSSLAVPGKINMSCSGEPVFGTVCKFACPEGWTLNGSAARTCGATGHWSGLLPTCEAPTESNIPLVAGLSAAGLSLLTLAPFLLWLRKCLRKAKKFVPASSCQSLESDGSYQKPSYIL",glycan array binding signal (z-score),[1],0.141
same,glycan array binding signal (z-score),[2],-0.223
same,glycan array binding signal (z-score),Neu5Gc(a2-6)GalNAc,-0.239
same,glycan array binding signal (z-score),[3],-0.187
